The supplement of paper PMC6135742
Structures can show the parent of a compound that is named as a salt. In all, about 2,600 compounds were measured (“total cell number (DAPI+ nuclei) relative to DMSO vehicle control”: median about -1.4, lowest 2% from about -23 on). The list shows a part of the results.

These molecules were tested on jimpy (Plp1 jimpy) mouse iPSC-derived oligodendrocyte progenitor cells (assay: total cell number (DAPI+ nuclei) relative to DMSO vehicle control (SDs above negative control mean); higher = more surviving cells). Conditions: 10 µM; 3 days.
`CCCCCCCCCCCCc1ccc(S(=O)(=O)Nc2nncs2)cc1` gave a total cell number of 1.21. `CCN(CC)CCOC(=O)C(c1ccccc1)c1ccccc1` [Adiphenine HCl] was tested, and the total cell number was 0.0625. `C[C@H]1[C@H](C)CC[C@]2(C(=O)O)CC[C@]3(C)C(=CC[C@@H]4[C@@]5(C)C[C@@H](O)[C@H](O)[C@@](C)(CO)[C@@H]5CC[C@]43C)[C@H]12` [Asiatic Acid] showed a total cell number of 0.335. With `CCOC(=O)c1ccc(N)cc1` [Benzocaine] the total cell number was -1.12. `CC(C)C[C@H](C(=O)O)c1cc(-c2ccc(C(F)(F)F)cc2)cc(-c2ccc(C(F)(F)F)cc2)c1` showed a total cell number of 10.7. With `Nc1cc(F)ccc1NC(=O)/C=C/c1cnn(C/C=C/c2ccccc2)c1` the total cell number was -12.1. `CN(Cc1cnc2nc(N)nc(N)c2n1)c1ccc(C(=O)N[C@@H](CCC(=O)O)C(=O)O)cc1` [Methotrexate] gave a total cell number of -5.68. Molecule `CCOc1ccc2nc3cc(N)ccc3c(N)c2c1` [Ethacridine lactate monohydrate] has a total cell number of -15.2. With `CCCCCCCCCC(=O)NC(CN1CCOCC1)[C@H](O)c1ccccc1` (mixture of isomers) the total cell number was -1.55. With `CN(C)c1ccc(O)c2c1C[C@H]1C[C@H]3[C@H](N(C)C)C(O)=C(C(N)=O)C(=O)[C@@]3(O)C(O)=C1C2=O` [Minocycline hydrochloride] the total cell number was -1.32. In the case of `CC(Cc1ccc(O)c(O)c1)(NN)C(=O)O` (stereo not drawn) [S-(-)-Carbidopa], the total cell number is reported as -1.61. `C[N+](C)(C)CCOC(=O)CCC(=O)OCC[N+](C)(C)C` [Succinylcholine chloride] gave a total cell number of -0.486. `C[N+](C)(C)CCOC(=O)CCC(=O)OCC[N+](C)(C)C` [Succinylcholine Chloride Dihydrate] showed a total cell number of 0.679. In the case of `CCN1CCc2nc(N)oc2CC1` [B-HT 933 dihydrochloride], the total cell number is reported as 0.337. `COc1cc(C(C)=O)ccc1O` [Apocynin] showed a total cell number of -0.661. For `C[C@H](NC(=O)C(=O)Nc1ccccc1C(C)(C)C)C(=O)N[C@@H](CC(=O)O)C(=O)COc1c(F)c(F)cc(F)c1F` [Emricasan], the total cell number was 7.61. `O=C1CCCC(=O)C1C(=O)c1ccc(C(F)(F)F)cc1[N+](=O)[O-]` [Nitisinone] was tested, and the total cell number was -0.917. `CC[C@H](C)C[C@H](C)CCCCCCCCC(=O)N[C@H]1C[C@@H](O)[C@@H](NCCN)NC(=O)[C@@H]2[C@@H](O)CCN2C(=O)[C@H]([C@H](O)CCN)NC(=O)[C@H]([C@H](O)[C@@H](O)c2ccc(O)cc2)NC(=O)[C@@H]2C[C@@H](O)CN2C(=O)[C@H]([C@@H](C)O)NC1=O` [Caspofungin Acetate] showed a total cell number of -1.49. Molecule `Nc1ncnc2n[nH]c(Nc3ccc(F)cc3)c12` has a total cell number of -5.75. With `CNC(=O)CN(CCN(CCN(CC(=O)[O-])CC(=O)NC)CC(=O)[O-])CC(=O)[O-].[Gd+3]` [Gadodiamide] the total cell number was -14.9. With `CN(C)Cc1ccc(S(=O)(=O)n2ccc(/C=C/C(=O)NO)c2)cc1` [Resminostat] the total cell number was -4.82. Molecule `c1ccc(CN(CC2=NCCN2)c2ccccc2)cc1` [Antazoline HCl] has a total cell number of 0.133. In the case of `Clc1ccc(N2CCN(Cc3cc4ccccn4n3)CC2)cc1`, the total cell number is reported as -1.15. `O=C(O)C1=CCCN(CCON=C(c2ccccc2)c2ccccc2)C1` [NO-711 hydrochloride] showed a total cell number of -1.32. In the case of `CN(C)CC/C=C1/c2ccccc2COc2ccc(CC(=O)O)cc21` [Olopatadine HCl], the total cell number is reported as 0.218. With `CNC(=N)NCCC[C@H](N)C(=O)O` [NG-Monomethyl-L-arginine acetate] the total cell number was -2.17. With `CNC(=O)c1ccc(C)c(-n2c(C)cc(OCc3ccc(F)cc3F)c(Br)c2=O)c1` the total cell number was -0.876. `Cc1cc(OCc2nnc(SC3CCCC3)n2-c2cccnc2)ccc1-c1ccc(S(C)(=O)=O)cc1` showed a total cell number of -16.3. Molecule `COCCc1ccc(OCC(O)CNC(C)C)cc1` (racemic) [(±)-Metoprolol (+)-tartrate] has a total cell number of -1.34. In the case of `CCCCCCCCCCCC[N+](C)(C)CCOc1ccccc1` [Domiphen Bromide], the total cell number is reported as -16.4. `Cc1ccc(-n2nc(C(C)(C)C)cc2NC(=O)Nc2ccc(OCCN3CCOCC3)c3ccccc23)cc1` [BIRB 796 (Doramapimod)] gave a total cell number of -0.00893. `NC(=O)c1cccc(N)c1` [3-aminobenzamide] showed a total cell number of 1.33. `CN1C2CCC1CC(OC(=O)C(O)c1ccccc1)C2` (configuration not stated) [Homatropine Bromide] gave a total cell number of 0.583. `CC(N)(Cc1ccc(O)c(O)c1)C(=O)O` (racemic) [(±)-3-(3,4-dihydroxyphenyl)-2-methyl-DL-alanine] gave a total cell number of -2.34. `CCCOc1ccc(C(=O)OCCN(CC)CC)cc1N` [Proparacaine HCl] gave a total cell number of -0.938. `CC(C)C[C@H](NC(=O)CNC(=O)c1cc(Cl)ccc1Cl)B1OC(=O)C(CC(=O)O)(CC(=O)O)O1` showed a total cell number of -12. Work on `CC[C@@H](CO)NCCN[C@@H](CC)CO` [Ethambutol HCl] yielded a total cell number of -0.925. Work on `CN(C)CCC(c1ccc(Br)cc1)c1ccccn1` (single isomer, unassigned; (+)) [(+)-Brompheniramine maleate] yielded a total cell number of -6.24. For `CCN(CC)CCCCNc1ncc2cc(-c3cc(OC)cc(OC)c3)c(NC(=O)NC(C)(C)C)nc2n1`, the total cell number was -24.8. In the case of `C[C@@H]1COC(Nc2ccc3ncnc(Nc4ccc(OCc5nccs5)c(Cl)c4)c3c2)=N1` [Varlitinib], the total cell number is reported as -7.68. `O=C(/C=C/c1ccc(O)c(O)c1)O[C@@H]1C[C@](O)(C(=O)O)C[C@@H](O)[C@H]1O` [Chlorogenic Acid] showed a total cell number of -0.603. Molecule `Oc1cccc(-c2nc(N3CCOCC3)c3oc4ncccc4c3n2)c1` has a total cell number of -21. Work on `C#CCn1c(=O)c2c(ncn2C)n(C)c1=O` [3,7-Dimethyl-1-propargylxanthine] yielded a total cell number of -1.05. `N#C/C(=C\c1ccc(O)c(O)c1)C(=O)NCc1ccccc1` [AG-490 (Tyrphostin B42)] gave a total cell number of -15. With `C#C[C@]1(O)CC[C@H]2[C@@H]3CCC4=CC(=O)CC[C@@H]4[C@H]3CC[C@@]21CC` [Levonorgestrel] the total cell number was -0.33. Work on `CCC(=O)Nc1cccc(Oc2nc(Nc3ccc(N4CCN(C)CC4)cc3OC)ncc2Cl)c1` yielded a total cell number of -15.2. Work on `C=CC(=O)Nc1cccc(Nc2nc(Nc3ccc(OCCOC)cc3)ncc2F)c1` yielded a total cell number of -15.3. Molecule `O=C(O)CP(=O)(O)O` [Phosphonoacetic acid] has a total cell number of -2.04. `Cn1ccc2cc3c(cc21)CCN3C(=O)Nc1cccnc1` showed a total cell number of -1.53. `CCCCN(CC)c1nc(C)nc2c1c(C)cn2-c1c(C)cc(C)cc1C` gave a total cell number of 2.06. Molecule `N#CC(C#N)=C(N)/C(C#N)=C/c1cc(O)c(O)c(O)c1` [Tyrphostin 51] has a total cell number of -1.44. With `CCN(CC)CCCCCCCCOC(=O)c1cc(OC)c(OC)c(OC)c1` [TMB-8 hydrochloride] the total cell number was 2.1. Molecule `NNC(=O)CSc1nc2scc(-c3ccccc3)c2c(=O)n1-c1ccccc1` has a total cell number of -1.08. `Nc1ccn([C@@H]2CS[C@H](CO)O2)c(=O)n1` [Lamivudine] gave a total cell number of 0.634. Work on `CCc1c(Cl)c(O)c(Cl)c(O)c1C(=O)O[C@H]1[C@H](O)[C@H](OC)[C@H](OC/C2=C\C=C\C[C@H](O)/C(C)=C/[C@H](CC)[C@@H](O[C@@H]3OC(C)(C)[C@@H](OC(=O)C(C)C)[C@H](O)[C@@H]3O)/C(C)=C/C(C)=C/C[C@@H]([C@@H](C)O)OC2=O)O[C@@H]1C` [Fidaxomicin] yielded a total cell number of 0.133. In the case of `Cc1cc(N)c2ccccc2[n+]1CCCCCCCCCC[n+]1c(C)cc(N)c2ccccc21` [Dequalinium chloride hydrate], the total cell number is reported as -10.8. For `COc1ccccc1OCC(O)COC(N)=O` (configuration not stated) [Methocarbamol], the total cell number was -0.688. In the case of `Oc1cc2c(cc1O)C(c1ccccc1)CNCC2` (racemic), the total cell number is reported as 1.89. `C[C@@H]1C(=O)NC2=Nc3cccc(Cl)c3CN21` [Quazinone] gave a total cell number of -1.61. `COC(=O)Nc1nc2cc([S+]([O-])c3ccccc3)ccc2[nH]1` (configuration not stated) [Oxfendazole] gave a total cell number of -5.83. For `COc1cccc(C(=O)NCCN2CCN(c3ccc(Cl)cc3)CC2)c1`, the total cell number was -2.1. Molecule `NS(=O)(=O)c1ccc(-n2nc(C(F)(F)F)cc2-c2ccc(Cl)cc2)cc1` has a total cell number of 0.298. For `O=C(Nc1ccccc1)Nc1ccc(-c2ccc(C(=O)[C@@H]3CCC[C@H]3C(=O)O)cc2)cc1`, the total cell number was -0.73. Work on `OC[C@@H](O)[C@@H](O)[C@@H](O)CO` [Ribitol] yielded a total cell number of 0.0535. In the case of `CN(C)C/C=C/C(=O)Nc1cc2c(Nc3ccc(F)c(Cl)c3)ncnc2cc1O[C@H]1CCOC1` [Afatinib (BIBW2992)], the total cell number is reported as -25.6. `CN1Cc2c(N)cccc2C(c2ccccc2)C1` (configuration not stated) [Nomifensine maleate] was tested, and the total cell number was -1.48. For `O=C1NC(=O)C(=Cc2ccc(-c3ccc(F)cc3)o2)S1` (stereo in doubt), the total cell number was -1.17. In the case of `CC(C)(O)c1ccccc1CC[C@@H](SCC1(CC(=O)O)CC1)c1cccc(/C=C/c2ccc3ccc(Cl)cc3n2)c1` [Montelukast Sodium], the total cell number is reported as -0.0603. Molecule `O=C1NC(=O)C(c2ccccc2)(c2ccccc2)N1` [5,5-Diphenylhydantoin] has a total cell number of -0.846. For `O=C1NC(=O)C(c2ccccc2)(c2ccccc2)N1` [Phenytoin], the total cell number was -0.28. In the case of `C#CCC(Cc1cnc2nc(N)nc(N)c2n1)c1ccc(C(=O)N[C@@H](CCC(=O)O)C(=O)O)cc1` (some centres not stated) [Pralatrexate], the total cell number is reported as -1.12. In the case of `O=C(C[S+]([O-])Cc1ccco1)NC/C=C\COc1cc(CN2CCCCC2)ccn1` (configuration not stated) [Lafutidine], the total cell number is reported as 2.6. In the case of `CCN(CC)CCCC(C)Nc1nc(C)cc(Nc2ccc3nc(C)cc(N)c3c2)n1` (configuration not stated), the total cell number is reported as 1.62. Work on `COc1c(N2CCNC(C)C2)c(F)cc2c(=O)c(C(=O)O)cn(C3CC3)c12` (configuration not stated) [Gatifloxacin] yielded a total cell number of 1.28. `O=C(c1ccccc1)c1ccc2n1CCC2C(=O)O` (configuration not stated) [Ketorolac tris salt] gave a total cell number of -1.79. `O=C(c1ccccc1)c1ccc2n1CCC2C(=O)O` (configuration not stated) [Ketorolac] gave a total cell number of -2.4. For `O=C(Nc1ccccc1Br)N[C@@H]1CCN(c2ccc(C(F)(F)F)cn2)C1`, the total cell number was -0.46.
